Test results taken from PubChem BioAssay (NCATS).
Values joined by “and” are separate entries in the source; they are usually repeats but may differ in a detail not shown here. Equal values may be shown once. Inconclusive results, whose numbers are uncertain, are shown with a selection of clear calls. Potencies of inconclusive entries are left out as doubtful fits. Active and inactive are the calls of the source. The call rests on the fitted dose curve; in most records, active means well fitted activation curve with a large enough effect; inconclusive means small, poorly fitted or top-dose-only effect, or another doubt; inactive means no such curve, though single readings can be large or run the other way.
Potency means the concentration at half of the fitted maximal effect; tags describe the fitted curve by direction and shape.

Experiment: Cell Proliferation Assay against the TMD8 Cell Line (Caspase readout at 8 hrs) (AID 651713)
Settings: TMD8 lymphoma cells, caspase activation luminescence; caspase activation: at 46.1 µM (top of the series)
Source text: One class of targeted therapeutics showing early clinical success in killing of ABC DLBCL lines are small molecule inhibitors of the Bruton tyrosine kinase (BTK) 11. Thus, we chose to investigate what additional compounds, if any, would synergize with the BTK inhibitor Ibrutinib (PCI-32765).
Prior to any combination assays, using an NCATS developed oncology compound library called the Mechanism of Interrogation Plate (MIPE), two well studied ABC DLBCL lines (TMD8 and HBL1) were screened using a cell viability assay (CellTiterGlo) and a 12-point titration series for each single agent. These initial experiments offered insight into the concentration range that offered the best coverage of activity and non-activity to assure relevant data is generated. In addition to the viability signature associated with this library, we examined the apoptotic response of each agent versus the TMD8 line as judged by caspase 3/7 activation. Activity was assayed at both 8 and 16 hour time-points to gain an appreciation of which agents induced an apoptotic response in a reasonable timeframe from a therapeutic exposure perspective. MIPE was also assayed for single agent viability in a human mesenchymal stem cell (hMSC) line as a surrogate of each library members potential therapeutic index.
The combination plates were then generated by choosing 20 of the best compounds from this single agent screen and plated in the presence of the BTK inhibitor. The first analysis was carried out using 6x6 dose response blocks for each of the 20 compounds. […] In addition to the cell viability assay, the parallel caspase 3/7 activation and viability in hMSC assays were carried out in the 10x10 format.
A total of 500 log growing TMD8 cells are seeded per well in 5 uL of a RPMI with glutamine (or Glutamax), without phenol red plus 5% FBS and 1X Pen/Strep into 1536 -solid white high base tissue culture treated Greiner One Bio Plates (789173-F) using a multidrop combi dispenser and a small sterile cassette. Compounds and controls totaling 23nL per well (negative control DMSO and positive control 9.2 uM Bortezomib-final) are immediately added to the plates using a 1536 head pin tool from Kalypsys. The plates are then covered with stainless steel gasket lids from Kalypsys and incubated for either 8 hours at 37C under 95% relative humidity with 5% CO2. After the desired incubation time, the plates are removed and allowed to reach room temperature before 3 uL of the Caspase Glo reagent (Promega) is added using an Aurora Flying Reagent Dispenser Bioraptor. The plates are then spun at 1000 rpms to remove bubbles and incubated for 15 minutes at room temperature before read on a ViewLux using a luminescent filter with a 10 second exposure. The relative luciferase units are used to calculated percent activity using DMSO as 0% and Bortezomib as 100%.
With CNC(=O)c1cc(Oc2ccc(NC(=O)Nc3ccc(Cl)c(C(F)(F)F)c3)cc2)ccn1 the Potency was inconclusive [activator, partial curve, poor fit].
In the case of CCc1cc(-c2n[nH]c(C)c2-c2ccc3c(c2)OCCO3)c(O)cc1O, the Potency is reported as inconclusive [activator, partial curve, poor fit].
In the case of CC(=O)Nc1cccc(-n2c(=O)n(C3CC3)c(=O)c3c(Nc4ccc(I)cc4F)n(C)c(=O)c(C)c32)c1, the Potency is reported as inconclusive [activator, single point].
In the case of OC[C@H](Cc1ccccc1)Nc1nc(Oc2ccc3c(c2)CCC3)nc2c1ncn2Cc1ccc(-c2ccccc2)cc1, the Potency is reported as inconclusive [activator, full curve, poor fit].
In the case of COc1cc(OC2CCN(C)CC2)ccc1Nc1ncc2c(n1)n(C1CCCC1)c(=O)n2C, the Potency is reported as active: 10.5 µM.
With NC(=O)Nc1cc(-c2cccc(F)c2)sc1C(=O)N[C@H]1CCCNC1 the Potency was inconclusive [activator, full curve, poor fit].
For CCCCn1c(=O)n(Cc2ccccc2F)c(=O)c2[nH]c(Cc3ccc(NC(C)=O)cc3)nc21, the “caspase activation” value was inactive: -27.9%.
In the case of CCOc1cc2ncc(C#N)c(Nc3ccc(F)c(Cl)c3)c2cc1NC(=O)C=CCN(C)C, the Potency is reported as active: 16.6 µM.
In the case of O=c1[nH]c(-c2ccc(C(F)(F)F)cc2)nc2c1CSCC2, the “caspase activation” value is reported as inactive: 8.42%.
In the case of COc1ccc2c(c1)CC[C@@H](CN(C)CC(=O)O)[C@H]2c1ccccc1, the “caspase activation” value is reported as inactive: 3.24%.
In the case of CC(=O)OCCN1C(=O)c2c(C)nc3ccc(S(=O)(=O)N4CCOCC4)cc3c2C1=O, the “caspase activation” value is reported as inactive: 1.21%.
With COc1cc2nccc(Oc3ccc(NC(=O)Nc4cc(C)on4)c(Cl)c3)c2cc1OC the Potency was inconclusive [activator, single point].
For CC(C)(Sc1ccc(CCN(CCCCC2CCCCC2)C(=O)NC2CCCCC2)cc1)C(=O)O, the “caspase activation” value was inactive: 8.02%.
With CCOC(=O)C(C)Oc1cccc2c(=O)n(CC(=O)Nc3ccc4c(c3)OCCO4)ccc12 (stereo not given) the “caspase activation” value was inactive: -0.909%.
In the case of CCc1cncnc1N1CCN(Cc2nc3ccc(C(F)(F)F)cc3[nH]2)CC1, the “caspase activation” value is reported as inactive: 18.5%.
With Clc1ccc2ncc(-c3cccc(NC4CNC4)n3)n2c1 the Potency was inconclusive [activator, single point].
In the case of CCN(CC)CCCCNc1nc2cc(Cl)c(Cl)cc2nc1-c1ccc(-c2cccs2)s1, the Potency is reported as inconclusive [activator, single point].
For Cc1cccc(Nc2nc(N[C@@H]3CCCC[C@H]3N)ncc2C(N)=O)c1, the “caspase activation” value was inactive: 24.6%.
In the case of Cc1ccc(NC(=O)c2cccc(C(C)(C)C#N)c2)cc1Nc1ccc2ncn(C)c(=O)c2c1, the Potency is reported as inconclusive [activator, single point].
In the case of O=C(NC1CCNCC1)c1[nH]ncc1NC(=O)c1c(Cl)cccc1Cl, the Potency is reported as active: 332 nM and active: 264 nM.
In the case of CC(C)c1ccccc1Cc1cc(C(=O)Nc2ccc(S(=O)(=O)c3ccccc3C(C)(C)C)cc2)c(O)c(O)c1O, the Potency is reported as inconclusive [activator, single point].
With CN1CCN(c2cc(C(=O)Nc3ccc4c(c3)-c3c(c(C(N)=O)nn3-c3ccc(F)cc3)CC4)c(Cl)cn2)CC1 the Potency was active: 33.2 µM.
For CC(c1cc2ccccc2s1)N(O)C(N)=O (stereo not given), the “caspase activation” value was inactive: 19.3% [at 92.2 µM].
In the case of COc1cc2c(N3CCN(C(=O)Nc4ccc(OC(C)C)cc4)CC3)ncnc2cc1OCCCN1CCCCC1, the Potency is reported as inconclusive [activator, single point].
In the case of CC(=O)c1c(C)c2cnc(Nc3ccc(N4CCNCC4)cn3)nc2n(C2CCCC2)c1=O, the Potency is reported as active: 33.2 µM.
For Fc1ccc(Cl)cc1-c1nc(Nc2ccncc2)c2nccnc2n1, the “caspase activation” value was inactive: 5.11%.
In the case of COc1ccc(OC)c(-c2nnc3ccc(-c4ccc(OC)c(O[C@@H]5CCOC5)c4)nn23)c1, the Potency is reported as inconclusive [activator, single point].
In the case of COc1ccccc1-c1cccc(-c2c(O)c3cc(C#N)c(Cl)cc3[nH]c2=O)c1, the “caspase activation” value is reported as inactive: -15.2%.
With NC(=O)C1CCCc2c1[nH]c1ccc(Cl)cc21 (stereo not given) the “caspase activation” value was inactive: -2.91%.
With COc1cc2ncnc(Nc3ccc(F)c(Cl)c3)c2cc1NC(=O)C=CCN1CCCCC1 the Potency was active: 23.5 µM.
With COc1ccc(CCN(C)CCCOc2ccc(S(=O)(=O)c3[nH]c4ccccc4c3C(C)C)cc2)cc1OC the Potency was inconclusive [activator, single point].
For CCN(CC)CCOc1ccc(Nc2ncc3cc(-c4c(Cl)cccc4Cl)c(=O)n(C)c3n2)cc1, the Potency was active: 26.4 µM.
With Cc1[nH]nc2ccc(-c3cncc(OC[C@@H](N)Cc4ccccc4)c3)cc12 the Potency was active: 2.35 µM.
With CC(C)(C)c1cc(C(C)(C)C)c(NC(=O)c2c[nH]c3ccccc3c2=O)cc1O the Potency was inconclusive [activator, single point].
In the case of CC=C1NC(=O)[C@H]2CSSCCC=C[C@H](CC(=O)N[C@H](C(C)C)C(=O)N2)OC(=O)[C@H](C(C)C)NC1=O, the Potency is reported as inconclusive [activator, partial curve, poor fit].
For Cn1cc(-c2[nH]c3cc(NC(=O)[C@H](N)C4CCCCC4)cc4c3c2C=NNC4=O)cn1, the Potency was inconclusive [activator, partial curve].
In the case of Cc1ccc(-c2ncn(-c3ccc(Nc4nccc(-c5cccc(N6CCOCC6)c5)n4)cc3)n2)cn1, the caspase activation is reported as inconclusive: 48.8% [activator].
In the case of O=C(Nc1cccc(Cl)c1)Nc1ncc(CCNc2ncnc3ccsc23)s1, the “caspase activation” value is reported as inactive: -1.04%.
For Cn1cc(-c2ccc3nnc(Sc4ccc5ncccc5c4)n3n2)cn1, the “caspase activation” value was inactive: -11%.
For CN(C)CCCNC(=O)c1ccc(-c2cc(O)c3ncccc3c2)cc1, the Potency was inconclusive [activator, single point].
